Measured values from PubChem BioAssay AID504832 (National Center for Advancing Translational Sciences (NCATS), 2011).
Several values for one entry are separate records, joined by “and”; a condition that tells them apart may be missing. Identical values can stand only once. Out of some 310,000 compounds screened, about 18,000 (5.8%) were called active. The shares of active, inactive and inconclusive entries below differ from those in the screen. Calls come from the whole dose curve; as a rule, active = well fitted inhibition curve with a large enough effect; inconclusive = small, poorly fitted or top-dose-only effect, or another doubt; inactive = no such curve, though single readings can be large or run the other way. Potencies of inconclusive entries are left out as doubtful fits.
Potency is the fitted concentration of half-maximal effect; tags give direction and shape of the fitted curve.

Experiment: Primary qHTS for delayed death inhibitors of the malarial parasite plastid, 48 hour incubation
Conditions: P. falciparum luciferase growth in erythrocytes; series mostly up to 28.7 µM
Outline: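 Parasite viability was followed by luminescence of a genomically integrated firefly luciferase. Cultures held 0.1% parasitemia at 2% hematocrit (final), incubated under 5% CO2 at 37 C.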
For `CCN(c1ccccc1)S(=O)(=O)c1ccc(Oc2ccc(-n3ccnc3)cc2)nc1`, the Potency was inconclusive [inhibitor, partial curve, poor fit]. With `COc1ccc(NC(=S)N2CCNC(=O)C2CC(=O)Nc2cccc(Cl)c2C)cc1` (stereo not given) the Potency was “inactive”. For `COc1cc(OC)cc(C(=O)N2CCN(C(=O)c3cccnc3)CC2)c1`, the Potency was inconclusive [inhibitor, partial curve, poor fit]. With `COc1ccc(/C(C)=N/N2C(C)CCCC2C)c(OC)c1` (stereo not given) the Potency was inconclusive [inhibitor, single point]. With `COc1ccccc1CC(=O)NCc1ccc2c(c1)OCO2` the Potency was “inactive”. With `COC(C[C@@H](O)CC(=O)[C@H](C)OCc1ccccc1)OC` the Potency was “inactive”. For `COc1cc([N+](=O)[O-])ccc1NC(=O)C[n+]1ccccc1C`, the Potency was inconclusive [inhibitor, partial curve, poor fit]. For `O=C(CSc1nnc(-c2cccc(S(=O)(=O)N3CCCCC3)c2)o1)NCCC1=CCCCC1`, the Potency was inconclusive [inhibitor, partial curve, poor fit]. With `CCN1C(c2ccccc2)=C(c2ccccc2)S/C1=C/C=C1\SC(=S)N(C)C1=O` the Potency was inconclusive [inhibitor, partial curve, poor fit]. With `CC(=O)NS(=O)(=O)c1ccc(NC(=O)/C=C/c2ccco2)cc1` the Potency was “inactive”. For `CCc1ccc2[nH]c(C(=O)Nc3ccc(Br)c(C)n3)cc2c1`, the Potency was “inactive”. For `COc1ccc(NC(=O)CSc2nc(N)cc(N)n2)cc1S(=O)(=O)N1CCCCC1`, the Potency was inconclusive [inhibitor, single point]. In the case of `Cc1ccc(Nc2nc(N)nc(CN3CCN(c4ccccc4)CC3)n2)cc1Cl`, the Potency is reported as inconclusive [inhibitor, single point]. In the case of `CCCc1nc2ccccc2n1Cc1ccccc1OC`, the Potency is reported as inconclusive [inhibitor, partial curve, poor fit]. With `CCOc1ccc(NC(=O)c2ccc(N3CC4CC(C3)c3cccc(=O)n3C4)c(NC(=O)c3ccncc3)c2)cc1` (stereo not given) the Potency was inconclusive [inhibitor, partial curve, poor fit]. For `COC(=O)c1ccc(Oc2nc(NC(C)C)nc(NC(C)C)n2)cc1`, the Potency was inconclusive [inhibitor, single point]. In the case of `CCCCn1c2c(c(=O)n(C)c1=O)C(CC(=O)OCC(=O)Nc1cccc(C(F)(F)F)c1)C(=O)N2` (stereo not given), the Potency is reported as inconclusive [inhibitor, partial curve, poor fit]. In the case of `CCn1c(=S)[nH]c2sc3c(c2c1=O)CCCC3`, the Potency is reported as inconclusive [inhibitor, single point]. With `CSc1ccc(CN(C)C(=O)C(c2ccccc2)c2ccccc2)cc1` the Potency was active: 8.28 µM. In the case of `COC(=O)C(NC(=O)CNS(=O)(=O)c1ccc(Br)cc1)c1ccccc1` (stereo not given), the Potency is reported as active: 10.4 µM. For `O=S(=O)(CCSc1ccccn1)c1nc2ccccc2s1`, the Potency was inconclusive [inhibitor, single point]. With `O=C(N/C=C/c1ccccc1)c1ccccc1` the Potency was inconclusive [inhibitor, single point]. In the case of `CCOc1ccc(CN(C)CC(=O)Nc2ccc(N3CCOCC3)cc2)cc1OC`, the Potency is reported as “inactive”. For `CCOC(=O)N1CCN=C1SCc1ccc(Cl)c(Cl)c1`, the Potency was inconclusive [inhibitor, single point]. With `CCOC(=O)COc1ccc(Br)cc1/C=C1\SC(N)=NC1=O` the Potency was inconclusive [inhibitor, partial curve]. In the case of `CCC(C)NC(=O)c1ccccc1NC(=O)CN(c1cc(C)ccc1OC)S(C)(=O)=O` (stereo not given), the Potency is reported as inconclusive [inhibitor, partial curve, poor fit]. For `C=C[C@]1(C)C[C@@H](OC(=O)CSCCN(CC)CC)[C@]2(C)C(C)CC[C@]3(CCC(=O)[C@H]32)[C@@H](C)[C@@H]1O` (stereo not given in full), the Potency was active: 13.5 µM and active: 13.1 µM. In the case of `CCOc1ccccc1NC(=O)C1CCCCN1S(=O)(=O)c1ccc(F)cc1` (stereo not given), the Potency is reported as inconclusive [inhibitor, partial curve, poor fit]. For `Cc1cccc(-n2c(SCC(=O)NCc3ccc4c(c3)OCO4)nc3ccccc3c2=O)c1`, the Potency was inconclusive [inhibitor, partial curve]. In the case of `CC(C)c1ccc2c(c1)C(c1cccs1)=NNC(c1ccncc1)=N2`, the Potency is reported as inconclusive [inhibitor, single point]. For `CCOC(=O)C1(CC2CCCCO2)CCN(C(=O)Nc2ccc(C(=O)OC)cc2)CC1` (stereo not given), the Potency was inconclusive [inhibitor, single point]. In the case of `COCC(=O)N(CCc1ccc(OC)c(OC)c1)Cc1cc2cc(C)ccc2nc1Cl`, the Potency is reported as “inactive”. With `CC1CN(S(=O)(=O)c2ccc(F)cc2)CN1C(=O)N1CCOCC1` (stereo not given) the Potency was “inactive”. For `COc1cccc(-c2nn(C)c3sc(C(=O)Nc4ccc5c(c4)OCCO5)cc23)c1`, the Potency was inconclusive [inhibitor, single point]. For `CCc1c(O)nc(SCC(=O)N2CCc3cc(OC)c(OC)cc3[C@@H]2C)[nH]c1=O`, the Potency was inconclusive [inhibitor, partial curve, poor fit]. With `COC(=O)c1cc(NC(=O)Cc2ccc(OC)cc2)cc(C(=O)OC)c1` the Potency was inconclusive [inhibitor, single point]. In the case of `CCOC(=O)[C@H](CCc1ccccc1)N[C@@H](C)C(=O)N1CCC[C@@H]1C(=O)O`, the Potency is reported as “inactive”. For `O=C(CN1C(=O)C2CCCCC2C1=O)Nc1cc(C(F)(F)F)ccc1N1CCCC1` (stereo not given), the Potency was inconclusive [inhibitor, partial curve, poor fit]. In the case of `O=C1N(c2ccccc2)c2ccccc2C1(Cc1ccncc1)Cc1ccncc1`, the Potency is reported as inconclusive [inhibitor, partial curve, poor fit]. For `CCOc1ccc(/C=N/NC(=O)c2[nH]ncc2Br)c(O)c1`, the Potency was inconclusive [inhibitor, single point]. With `Cc1ccsc1CN(C)CC(=O)Nc1cccc(S(=O)(=O)N(C)c2ccccc2)c1` the Potency was inconclusive [inhibitor, single point]. With `Cc1cc(C)cc(CSCC(=O)N/N=C/c2ccc(OCC(=O)NCc3ccco3)cc2)c1` the Potency was inconclusive [inhibitor, single point]. With `CCc1ccc2nc(SCC(=O)Nc3ccccc3N3CCOCC3)c(C#N)cc2c1` the Potency was active: 9.28 µM. In the case of `Cc1ccc(OCCCCNC(C)c2ccccc2)c(C)c1` (stereo not given), the Potency is reported as inconclusive [inhibitor, single point]. In the case of `CCOc1ccccc1NC(=S)Nc1ccc(S(N)(=O)=O)cc1`, the Potency is reported as “inactive”. With `Cc1cc(CSc2ccccc2)ccc1NC(=O)c1cccc([N+](=O)[O-])c1` the Potency was inconclusive [inhibitor, single point]. With `CNc1oc(-c2ccc(F)cc2)nc1S(=O)(=O)c1ccccc1` the Potency was inconclusive [inhibitor, partial curve, poor fit]. For `Cc1ccc(-c2nc(C#N)c(NCCCn3ccnc3)o2)cc1`, the Potency was inconclusive [inhibitor, single point]. In the case of `O=C(CC(=O)Nc1nc(C23CC4CC(CC(C4)C2)C3)cs1)NCCO`, the Potency is reported as active: 13.1 µM. For `CCN(CC)CCCNC(=O)CSc1nc(-c2cccs2)cc(C(F)(F)F)n1`, the Potency was “inactive”. With `CCC1CCc2sc(C(=O)NCC(c3ccc(OC)cc3)N3CCCC3)cc2C1` (stereo not given) the Potency was active: 11.7 µM. With `O=C(N/N=C/c1sc2ccccc2c1O)c1cccc2ccccc12` the Potency was inconclusive [inhibitor, single point]. With `COc1ccc(OC)c(C(O)c2coc3ccc(O)c(CN4CCOCC4)c23)c1` (stereo not given) the Potency was active: 7.38 µM. For `CN(C)Cc1c(O)ccc2c(=O)c(-c3ccccc3)c(C(F)(F)F)oc12`, the Potency was inconclusive [inhibitor, single point]. For `O=[N+]([O-])c1cccnc1S(=O)(=O)c1ccccc1`, the Potency was inconclusive [inhibitor, single point]. For `CCc1ccc(-c2cc(C)no2)cc1S(=O)(=O)NCc1ccccc1OC`, the Potency was inconclusive [inhibitor, full curve, poor fit]. With `O=[N+]([O-])c1ccc(COc2ccc(-c3[nH]ncc3-c3ccc(Cl)cc3)c(O)c2)cc1` the Potency was active: 2.33 µM. With `O=C(Nc1ccc2c(c1)OCO2)N1CCCc2ccccc21` the Potency was “inactive”. For `CC(C)c1ccccc1NC(=S)NCC1(N(C)C)CCCCC1`, the Potency was inconclusive [inhibitor, single point]. For `COc1ccc(CC(=O)NNC(=O)c2ccccn2)cc1`, the Potency was inconclusive [inhibitor, partial curve, poor fit]. With `CCOC(=O)n1c(=O)n(Cc2ccc(Cl)c(Cl)c2)c2ccccc21` the Potency was inconclusive [inhibitor, single point]. In the case of `CN(C)S(=O)(=O)c1ccc(N2CCCC2)c(C(=O)NNC(=O)c2ccc(F)cc2)c1`, the Potency is reported as “inactive”. In the case of `Cc1cc(Cl)cc2c(N=Nc3ccccc3C(=O)O)c(O)[nH]c12`, the Potency is reported as inconclusive [inhibitor, partial curve, poor fit]. For `CN(CC(=O)Nc1ccc(Cl)cc1)C(=O)c1cccc(S(=O)(=O)N(C)C)c1`, the Potency was inconclusive [inhibitor, partial curve]. With `CCc1cccc(NC(=O)c2ccc3c(=O)n4c(nc3c2)CCCCC4)c1` the Potency was inconclusive [inhibitor, single point].
